No constants are given. Whether binding was seen depends on the method and setting. Binding seen in cells or lysates may run through a third protein. Some entries that bind do so weakly or less than the wild type. For some of these results: Sequences can lack the tags named with a protein. Blank lines part the entries; values can stand above or below the substance they belong to.
Legend:
[1] = target: GST-SPOP (pGEX-4T-1-SPOP) (human) (UniProt O43791); experiment: pull-down; GST pull-down from lysates of 293T cells transfected with HDAC6 constructs, treated with 10 μM MG132 for 12 hours; by the methods 1 mg lysate with 1 μg bacterial purified GST fused protein for 4 hours in the cold room, washed with NETN buffer; immunoblot; only the target purified
Flag-Keap1 = Flag-Keap1 (UniProt Q14145); experiment: co-IP; 293T cells transfected with HA-HDAC6 and Flag-tagged Cullin 3 family adaptor constructs, treated with 10 μM MG132 for 12 hours before harvesting; lysis in EBC buffer, washed with NETN buffer; immunoblot
Flag-PLZF = target: T1, Flag-PLZF (UniProt Q05516); experiment: as above
T1 sequence: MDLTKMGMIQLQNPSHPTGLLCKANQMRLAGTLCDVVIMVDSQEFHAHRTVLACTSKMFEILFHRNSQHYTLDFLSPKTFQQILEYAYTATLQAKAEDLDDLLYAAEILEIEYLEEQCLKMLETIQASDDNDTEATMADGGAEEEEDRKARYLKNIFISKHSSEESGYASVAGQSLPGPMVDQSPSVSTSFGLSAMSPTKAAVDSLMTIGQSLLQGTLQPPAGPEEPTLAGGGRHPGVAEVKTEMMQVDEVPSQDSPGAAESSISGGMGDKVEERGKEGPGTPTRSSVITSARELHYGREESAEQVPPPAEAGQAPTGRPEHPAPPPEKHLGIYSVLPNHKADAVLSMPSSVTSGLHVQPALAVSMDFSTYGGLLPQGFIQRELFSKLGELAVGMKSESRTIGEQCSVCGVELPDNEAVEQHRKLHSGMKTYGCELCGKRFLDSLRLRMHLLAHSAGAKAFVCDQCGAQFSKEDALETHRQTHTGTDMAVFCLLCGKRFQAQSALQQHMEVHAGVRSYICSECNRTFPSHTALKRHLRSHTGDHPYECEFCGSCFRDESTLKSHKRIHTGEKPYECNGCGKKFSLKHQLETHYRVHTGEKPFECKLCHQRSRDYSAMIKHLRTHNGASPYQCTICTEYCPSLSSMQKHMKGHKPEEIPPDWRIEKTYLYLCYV

The chains behind the UniProt entries cited, without tags or fusion partners. Where a name states a change or a piece, a line headed by the entry shows the natural chain unless it says otherwise. A line that says so, or that is headed by a name, gives the form on record, which may keep a tag or linker.
UniProt O43791: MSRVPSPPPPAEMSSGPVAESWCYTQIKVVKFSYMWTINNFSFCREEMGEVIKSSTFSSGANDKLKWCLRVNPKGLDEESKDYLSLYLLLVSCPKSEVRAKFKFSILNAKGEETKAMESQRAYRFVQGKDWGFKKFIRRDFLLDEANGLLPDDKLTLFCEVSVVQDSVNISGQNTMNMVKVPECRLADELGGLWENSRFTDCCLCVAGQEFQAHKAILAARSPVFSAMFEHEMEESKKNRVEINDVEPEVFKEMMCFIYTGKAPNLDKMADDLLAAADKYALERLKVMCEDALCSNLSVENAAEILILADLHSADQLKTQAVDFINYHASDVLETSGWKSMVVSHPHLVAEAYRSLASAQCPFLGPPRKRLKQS
UniProt Q9UBN7: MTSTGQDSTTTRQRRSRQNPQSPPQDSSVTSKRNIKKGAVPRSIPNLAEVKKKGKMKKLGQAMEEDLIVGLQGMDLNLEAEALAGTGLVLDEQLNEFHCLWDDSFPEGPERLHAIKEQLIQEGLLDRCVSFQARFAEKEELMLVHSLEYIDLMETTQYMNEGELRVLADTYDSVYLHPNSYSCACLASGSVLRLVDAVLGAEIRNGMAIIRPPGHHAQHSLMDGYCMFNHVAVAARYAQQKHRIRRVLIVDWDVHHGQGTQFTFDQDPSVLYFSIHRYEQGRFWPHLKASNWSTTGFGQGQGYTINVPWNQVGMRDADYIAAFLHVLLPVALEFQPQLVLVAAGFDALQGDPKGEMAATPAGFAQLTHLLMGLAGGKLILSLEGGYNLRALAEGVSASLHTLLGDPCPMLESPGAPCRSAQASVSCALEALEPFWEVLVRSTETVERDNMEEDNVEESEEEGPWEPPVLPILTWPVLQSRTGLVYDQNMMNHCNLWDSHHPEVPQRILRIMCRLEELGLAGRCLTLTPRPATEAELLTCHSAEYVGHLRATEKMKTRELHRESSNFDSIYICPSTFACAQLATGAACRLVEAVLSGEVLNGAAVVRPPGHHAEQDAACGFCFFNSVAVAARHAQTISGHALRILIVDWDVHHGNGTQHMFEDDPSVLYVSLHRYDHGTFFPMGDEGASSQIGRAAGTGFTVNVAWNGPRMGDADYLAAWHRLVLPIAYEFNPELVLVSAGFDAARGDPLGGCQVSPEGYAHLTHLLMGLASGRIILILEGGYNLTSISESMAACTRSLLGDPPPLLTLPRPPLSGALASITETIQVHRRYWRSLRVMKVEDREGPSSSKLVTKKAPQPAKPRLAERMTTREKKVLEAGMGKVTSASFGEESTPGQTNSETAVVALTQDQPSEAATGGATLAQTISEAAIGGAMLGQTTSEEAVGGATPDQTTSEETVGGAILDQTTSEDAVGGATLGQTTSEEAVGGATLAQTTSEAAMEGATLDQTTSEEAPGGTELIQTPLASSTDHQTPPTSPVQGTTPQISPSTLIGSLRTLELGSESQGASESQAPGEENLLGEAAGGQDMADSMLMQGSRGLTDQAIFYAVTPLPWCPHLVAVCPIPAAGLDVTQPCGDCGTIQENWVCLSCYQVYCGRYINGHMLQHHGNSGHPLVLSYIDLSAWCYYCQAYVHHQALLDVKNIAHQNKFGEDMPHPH
HDAC6 with deletion of degron 1 (ΔD1) (Q9UBN7, form named): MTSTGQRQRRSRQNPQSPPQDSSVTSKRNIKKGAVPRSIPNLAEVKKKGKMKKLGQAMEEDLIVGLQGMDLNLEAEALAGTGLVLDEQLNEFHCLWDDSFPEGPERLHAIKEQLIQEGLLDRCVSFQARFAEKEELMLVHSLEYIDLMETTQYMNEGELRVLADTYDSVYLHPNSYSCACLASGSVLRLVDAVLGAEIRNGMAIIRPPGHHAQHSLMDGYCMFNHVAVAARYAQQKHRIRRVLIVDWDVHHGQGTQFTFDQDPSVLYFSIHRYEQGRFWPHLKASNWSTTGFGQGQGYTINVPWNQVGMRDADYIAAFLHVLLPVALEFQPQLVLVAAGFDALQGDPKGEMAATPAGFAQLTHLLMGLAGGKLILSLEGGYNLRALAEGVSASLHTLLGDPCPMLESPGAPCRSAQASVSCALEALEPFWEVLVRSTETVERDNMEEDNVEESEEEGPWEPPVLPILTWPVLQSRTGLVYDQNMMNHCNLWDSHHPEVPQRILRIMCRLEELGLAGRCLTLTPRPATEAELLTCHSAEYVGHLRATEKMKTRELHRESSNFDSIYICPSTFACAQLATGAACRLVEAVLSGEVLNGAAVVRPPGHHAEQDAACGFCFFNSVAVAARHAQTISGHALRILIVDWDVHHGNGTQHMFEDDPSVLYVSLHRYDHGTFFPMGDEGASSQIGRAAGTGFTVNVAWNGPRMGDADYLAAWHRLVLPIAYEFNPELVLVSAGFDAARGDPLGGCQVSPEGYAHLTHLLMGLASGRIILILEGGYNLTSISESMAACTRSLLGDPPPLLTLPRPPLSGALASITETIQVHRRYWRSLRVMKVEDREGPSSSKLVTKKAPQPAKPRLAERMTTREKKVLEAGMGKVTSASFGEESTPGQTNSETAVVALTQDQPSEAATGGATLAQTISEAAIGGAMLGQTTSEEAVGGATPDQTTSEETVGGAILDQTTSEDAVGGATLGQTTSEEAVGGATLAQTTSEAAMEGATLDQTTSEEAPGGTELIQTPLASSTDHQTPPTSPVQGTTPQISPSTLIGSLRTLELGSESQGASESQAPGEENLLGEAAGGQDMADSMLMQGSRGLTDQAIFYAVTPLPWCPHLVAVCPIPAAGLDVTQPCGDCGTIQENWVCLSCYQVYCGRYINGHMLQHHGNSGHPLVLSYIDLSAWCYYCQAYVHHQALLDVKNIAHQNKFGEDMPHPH
UniProt Q13619: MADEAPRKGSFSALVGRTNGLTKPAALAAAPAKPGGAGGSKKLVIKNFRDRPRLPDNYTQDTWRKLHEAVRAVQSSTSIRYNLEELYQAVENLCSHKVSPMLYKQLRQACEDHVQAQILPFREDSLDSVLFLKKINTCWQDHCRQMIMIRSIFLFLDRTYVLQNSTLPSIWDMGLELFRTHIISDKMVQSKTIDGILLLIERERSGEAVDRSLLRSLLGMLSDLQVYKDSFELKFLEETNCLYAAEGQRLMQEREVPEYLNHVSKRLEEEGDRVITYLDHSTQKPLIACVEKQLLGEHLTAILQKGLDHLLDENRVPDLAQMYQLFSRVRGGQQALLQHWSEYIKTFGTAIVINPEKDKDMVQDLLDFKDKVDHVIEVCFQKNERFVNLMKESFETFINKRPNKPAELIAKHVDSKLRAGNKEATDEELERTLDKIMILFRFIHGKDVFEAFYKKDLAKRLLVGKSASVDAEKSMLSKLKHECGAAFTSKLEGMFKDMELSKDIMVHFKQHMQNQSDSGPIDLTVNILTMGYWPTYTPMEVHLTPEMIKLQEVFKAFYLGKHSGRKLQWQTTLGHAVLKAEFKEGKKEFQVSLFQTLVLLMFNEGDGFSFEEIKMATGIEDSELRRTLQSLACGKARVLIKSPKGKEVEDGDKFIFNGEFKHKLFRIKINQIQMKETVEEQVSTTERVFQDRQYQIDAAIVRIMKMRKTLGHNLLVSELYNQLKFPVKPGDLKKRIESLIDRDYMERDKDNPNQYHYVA
UniProt Q14999: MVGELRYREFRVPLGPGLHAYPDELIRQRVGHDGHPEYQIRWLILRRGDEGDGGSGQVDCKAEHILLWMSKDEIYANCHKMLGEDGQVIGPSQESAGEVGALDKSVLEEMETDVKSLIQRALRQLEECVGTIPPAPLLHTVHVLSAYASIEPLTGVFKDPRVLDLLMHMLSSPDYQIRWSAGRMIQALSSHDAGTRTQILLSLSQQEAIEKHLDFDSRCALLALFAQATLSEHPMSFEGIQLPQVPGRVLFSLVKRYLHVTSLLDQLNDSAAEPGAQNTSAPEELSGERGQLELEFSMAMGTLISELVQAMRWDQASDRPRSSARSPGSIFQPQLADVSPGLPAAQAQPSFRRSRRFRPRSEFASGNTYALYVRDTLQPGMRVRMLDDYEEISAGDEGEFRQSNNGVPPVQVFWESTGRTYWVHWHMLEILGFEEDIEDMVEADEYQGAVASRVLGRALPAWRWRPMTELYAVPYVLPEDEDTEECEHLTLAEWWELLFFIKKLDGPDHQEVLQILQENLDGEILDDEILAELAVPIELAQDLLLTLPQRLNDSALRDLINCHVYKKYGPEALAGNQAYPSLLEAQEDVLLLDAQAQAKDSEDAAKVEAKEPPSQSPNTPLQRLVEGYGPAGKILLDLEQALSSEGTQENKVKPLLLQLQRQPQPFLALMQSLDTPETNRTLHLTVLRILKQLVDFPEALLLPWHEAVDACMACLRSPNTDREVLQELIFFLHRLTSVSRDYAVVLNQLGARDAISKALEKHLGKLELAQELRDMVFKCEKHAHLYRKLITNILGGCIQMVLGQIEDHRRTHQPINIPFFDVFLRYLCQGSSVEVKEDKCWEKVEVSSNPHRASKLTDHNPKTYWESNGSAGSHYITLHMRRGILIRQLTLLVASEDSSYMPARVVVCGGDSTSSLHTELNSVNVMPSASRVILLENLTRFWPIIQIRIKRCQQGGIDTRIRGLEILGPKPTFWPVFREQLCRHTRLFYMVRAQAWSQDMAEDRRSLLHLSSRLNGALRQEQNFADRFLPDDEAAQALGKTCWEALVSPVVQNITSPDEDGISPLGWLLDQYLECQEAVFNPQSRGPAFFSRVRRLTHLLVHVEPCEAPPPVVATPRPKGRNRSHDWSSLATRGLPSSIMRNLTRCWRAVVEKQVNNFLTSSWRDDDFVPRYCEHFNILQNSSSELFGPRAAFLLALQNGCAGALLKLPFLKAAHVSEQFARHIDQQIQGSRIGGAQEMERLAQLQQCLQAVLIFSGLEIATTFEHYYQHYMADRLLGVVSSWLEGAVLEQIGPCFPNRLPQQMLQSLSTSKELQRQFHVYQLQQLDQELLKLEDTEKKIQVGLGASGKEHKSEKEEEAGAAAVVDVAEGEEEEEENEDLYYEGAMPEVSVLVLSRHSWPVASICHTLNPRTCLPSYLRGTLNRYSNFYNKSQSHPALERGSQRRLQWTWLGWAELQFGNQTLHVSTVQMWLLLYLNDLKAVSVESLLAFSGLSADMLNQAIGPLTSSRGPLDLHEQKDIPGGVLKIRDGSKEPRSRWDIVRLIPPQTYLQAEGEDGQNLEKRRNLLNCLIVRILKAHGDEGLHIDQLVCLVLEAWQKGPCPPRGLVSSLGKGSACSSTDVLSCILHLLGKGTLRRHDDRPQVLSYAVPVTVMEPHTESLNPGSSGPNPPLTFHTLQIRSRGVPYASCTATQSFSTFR
UniProt Q93034: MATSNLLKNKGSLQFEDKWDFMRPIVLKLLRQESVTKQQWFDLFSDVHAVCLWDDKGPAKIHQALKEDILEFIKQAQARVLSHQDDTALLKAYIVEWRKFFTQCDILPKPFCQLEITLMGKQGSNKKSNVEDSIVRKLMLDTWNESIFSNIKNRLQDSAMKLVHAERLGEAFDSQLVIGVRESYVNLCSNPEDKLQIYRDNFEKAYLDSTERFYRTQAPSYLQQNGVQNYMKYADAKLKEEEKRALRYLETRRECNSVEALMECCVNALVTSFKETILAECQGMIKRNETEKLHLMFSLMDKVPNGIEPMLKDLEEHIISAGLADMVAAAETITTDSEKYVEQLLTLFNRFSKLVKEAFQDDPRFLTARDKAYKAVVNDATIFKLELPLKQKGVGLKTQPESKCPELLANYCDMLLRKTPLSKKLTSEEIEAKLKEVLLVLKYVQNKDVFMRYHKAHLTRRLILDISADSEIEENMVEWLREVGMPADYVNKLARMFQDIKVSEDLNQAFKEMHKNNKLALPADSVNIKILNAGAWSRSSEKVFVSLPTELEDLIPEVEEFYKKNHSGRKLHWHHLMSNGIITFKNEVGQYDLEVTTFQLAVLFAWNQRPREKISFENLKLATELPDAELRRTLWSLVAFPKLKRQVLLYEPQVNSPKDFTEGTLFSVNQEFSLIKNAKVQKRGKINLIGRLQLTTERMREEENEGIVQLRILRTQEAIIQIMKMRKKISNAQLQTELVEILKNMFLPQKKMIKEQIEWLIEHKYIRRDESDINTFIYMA

Flag-SPOP WT (human) [2] = target: Flag-SPOP WT (human) (UniProt O43791); experiment: as above
KLHL12 (Flag-tagged) = target: T2, KLHL12 (Flag-tagged) (UniProt Q53G59); experiment: as above
T2 sequence: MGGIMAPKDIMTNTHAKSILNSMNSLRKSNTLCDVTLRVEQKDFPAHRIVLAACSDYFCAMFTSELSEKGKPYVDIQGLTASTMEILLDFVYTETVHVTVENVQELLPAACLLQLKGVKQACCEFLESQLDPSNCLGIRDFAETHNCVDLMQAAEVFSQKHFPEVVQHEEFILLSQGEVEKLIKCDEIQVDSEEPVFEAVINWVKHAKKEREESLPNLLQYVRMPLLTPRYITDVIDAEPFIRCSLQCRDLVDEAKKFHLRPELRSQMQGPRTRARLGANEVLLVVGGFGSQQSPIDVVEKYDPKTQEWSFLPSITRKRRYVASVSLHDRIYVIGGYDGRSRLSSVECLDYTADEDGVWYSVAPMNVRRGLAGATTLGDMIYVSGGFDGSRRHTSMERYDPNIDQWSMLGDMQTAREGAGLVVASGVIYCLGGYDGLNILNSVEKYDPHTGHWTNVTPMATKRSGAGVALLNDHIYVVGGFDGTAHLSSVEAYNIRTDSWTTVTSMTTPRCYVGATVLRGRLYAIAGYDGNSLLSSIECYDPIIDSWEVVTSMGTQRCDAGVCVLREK

KLHL2 (Flag-tagged) = target: T3, KLHL2 (Flag-tagged) (UniProt O95198); experiment: as above
T3 sequence: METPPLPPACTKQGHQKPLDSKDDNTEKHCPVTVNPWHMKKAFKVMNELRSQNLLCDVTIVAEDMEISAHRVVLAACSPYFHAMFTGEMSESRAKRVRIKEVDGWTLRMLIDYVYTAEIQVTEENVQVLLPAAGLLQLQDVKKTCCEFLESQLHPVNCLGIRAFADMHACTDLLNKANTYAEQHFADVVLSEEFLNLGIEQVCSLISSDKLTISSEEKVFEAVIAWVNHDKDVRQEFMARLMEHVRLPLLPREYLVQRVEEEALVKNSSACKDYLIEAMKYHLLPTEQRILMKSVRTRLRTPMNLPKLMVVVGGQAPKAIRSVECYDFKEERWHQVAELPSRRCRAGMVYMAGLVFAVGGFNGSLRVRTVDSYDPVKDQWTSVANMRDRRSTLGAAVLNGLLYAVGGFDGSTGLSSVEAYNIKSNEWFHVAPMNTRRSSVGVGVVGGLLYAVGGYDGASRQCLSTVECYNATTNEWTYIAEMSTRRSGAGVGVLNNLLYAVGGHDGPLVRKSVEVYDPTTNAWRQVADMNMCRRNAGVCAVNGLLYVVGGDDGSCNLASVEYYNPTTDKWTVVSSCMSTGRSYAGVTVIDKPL

KLHL3 (Flag-tagged) = target: T4, KLHL3 (Flag-tagged) (UniProt Q9UH77); experiment: as above
T4 sequence: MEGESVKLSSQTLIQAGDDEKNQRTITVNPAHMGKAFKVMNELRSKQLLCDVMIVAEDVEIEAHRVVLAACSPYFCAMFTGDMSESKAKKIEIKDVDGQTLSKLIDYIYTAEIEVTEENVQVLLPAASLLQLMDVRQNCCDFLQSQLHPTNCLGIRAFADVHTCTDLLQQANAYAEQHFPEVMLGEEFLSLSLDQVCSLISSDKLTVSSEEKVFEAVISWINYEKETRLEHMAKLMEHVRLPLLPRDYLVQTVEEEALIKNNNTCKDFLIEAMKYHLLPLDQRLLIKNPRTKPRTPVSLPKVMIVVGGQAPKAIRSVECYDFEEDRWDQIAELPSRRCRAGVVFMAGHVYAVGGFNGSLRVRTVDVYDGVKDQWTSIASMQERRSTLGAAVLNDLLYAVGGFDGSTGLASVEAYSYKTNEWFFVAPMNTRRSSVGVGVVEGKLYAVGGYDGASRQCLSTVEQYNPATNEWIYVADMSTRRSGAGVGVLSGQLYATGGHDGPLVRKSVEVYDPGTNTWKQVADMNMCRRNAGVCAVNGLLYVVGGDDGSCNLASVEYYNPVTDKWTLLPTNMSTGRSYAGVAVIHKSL

KLHL37 (Flag-tagged) = target: T5, KLHL37 (Flag-tagged) (UniProt O14682); experiment: as above
T5 sequence: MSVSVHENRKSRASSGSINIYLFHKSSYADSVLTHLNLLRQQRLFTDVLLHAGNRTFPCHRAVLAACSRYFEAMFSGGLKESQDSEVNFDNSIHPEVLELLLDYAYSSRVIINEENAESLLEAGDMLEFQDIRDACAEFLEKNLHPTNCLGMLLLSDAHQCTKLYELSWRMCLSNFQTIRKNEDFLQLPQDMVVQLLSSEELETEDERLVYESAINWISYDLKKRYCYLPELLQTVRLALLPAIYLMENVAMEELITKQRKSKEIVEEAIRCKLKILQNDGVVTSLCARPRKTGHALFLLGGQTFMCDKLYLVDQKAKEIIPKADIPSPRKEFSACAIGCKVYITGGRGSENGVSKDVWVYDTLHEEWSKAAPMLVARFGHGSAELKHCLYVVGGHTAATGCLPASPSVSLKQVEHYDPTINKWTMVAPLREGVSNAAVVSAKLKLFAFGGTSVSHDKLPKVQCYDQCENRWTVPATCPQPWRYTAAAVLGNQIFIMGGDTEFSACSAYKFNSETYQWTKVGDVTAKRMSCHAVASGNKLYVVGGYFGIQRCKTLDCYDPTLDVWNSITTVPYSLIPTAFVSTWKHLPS

Flag-SPOP WT (human) [3] = target: Flag-SPOP WT (human) (UniProt O43791); experiment: pull-down; GST pull-down products derived from 293T cells transfected with indicated constructs; which partner carried GST is not told; immunoblot
SPOP F102C (human) = SPOP F102C (human) (UniProt O43791); experiment: as above
SPOP F133L (human) = SPOP F133L (human) (UniProt O43791); experiment: as above
SPOP F133V (human) = SPOP F133V (human) (UniProt O43791); experiment: as above
SPOP W131G (human) = SPOP W131G (human) (UniProt O43791); experiment: as above
SPOP Y87C (human) = SPOP Y87C (human) (UniProt O43791); experiment: as above
Flag-HDAC6 (human) = Flag-HDAC6 (human) (UniProt Q9UBN7); experiment: co-IP; 293T cells transfected with Flag-HDAC6 and Myc-Cullins, treated with 10 μM MG132 before harvesting; lysis in EBC buffer (50 mM Tris pH 7.5, 120 mM NaCl, 0.5% NP40), antibody-conjugated beads 4 hours in the cold room, washed with NETN buffer; immunoblot

Substance: HA-HDAC6 (from UniProt Q9UBN7 1-1215)
binding (Flag-Keap1): no binding
binding (Flag-PLZF): no binding
binding (Flag-SPOP WT (human) [2]): binds
binding (KLHL12 (Flag-tagged)): no binding
binding (KLHL2 (Flag-tagged)): no binding
binding (KLHL3 (Flag-tagged)): no binding
binding (KLHL37 (Flag-tagged)): no binding

Substance: HDAC6 with deletion of degron 1 (ΔD1) (from UniProt Q9UBN7 1-1215)
binding [1]: binds

Substance: Myc-Cullin 4A (from UniProt Q13619 1-759)
binding (Flag-HDAC6 (human)): no binding

Substance: Myc-Cullin 7 (from UniProt Q14999 1-1698)
binding (Flag-HDAC6 (human)): no binding

Next, values leading:

binding [1]: binds
Substance: Flag-HDAC6 (from UniProt Q9UBN7 1-1215)

binding (Flag-SPOP WT (human) [3]): binds
binding (SPOP F102C (human)): no binding
binding (SPOP F133L (human)): no binding
binding (SPOP F133V (human)): no binding
binding (SPOP W131G (human)): no binding
binding (SPOP Y87C (human)): no binding
Substance: HDAC6 (GST pull-down of Figure 5C) (from UniProt Q9UBN7 1-1215)

binding (Flag-HDAC6 (human)): no binding
Substance: Myc-Cullin 4B (from UniProt Q13620 1-913)

binding (Flag-HDAC6 (human)): no binding
Substance: Myc-Cullin 5 (from UniProt Q93034 1-780)

— paper PMC5564613
